Reference: PubChem BioAssay AID1347165 (National Center for Advancing Translational Sciences (NCATS), 2019)
Screen size: about 220,000 compounds; about 5,700 (2.6%) were called active. The shares of active, inactive and inconclusive entries below differ from those in the screen. The call rests on the fitted dose curve; in most records, active means well fitted inhibition curve with a large enough effect; inconclusive means small, poorly fitted or top-dose-only effect; inactive means no such curve, though single readings can be large or run the other way. A potency beside an inconclusive call is a rough fit, not a confirmed value.

Target: Lysine-specific demethylase 5B (Homo sapiens) (UniProt Q9UGL1)
Chain of UniProt Q9UGL1 (Q9UGL1 whole entry, looked up): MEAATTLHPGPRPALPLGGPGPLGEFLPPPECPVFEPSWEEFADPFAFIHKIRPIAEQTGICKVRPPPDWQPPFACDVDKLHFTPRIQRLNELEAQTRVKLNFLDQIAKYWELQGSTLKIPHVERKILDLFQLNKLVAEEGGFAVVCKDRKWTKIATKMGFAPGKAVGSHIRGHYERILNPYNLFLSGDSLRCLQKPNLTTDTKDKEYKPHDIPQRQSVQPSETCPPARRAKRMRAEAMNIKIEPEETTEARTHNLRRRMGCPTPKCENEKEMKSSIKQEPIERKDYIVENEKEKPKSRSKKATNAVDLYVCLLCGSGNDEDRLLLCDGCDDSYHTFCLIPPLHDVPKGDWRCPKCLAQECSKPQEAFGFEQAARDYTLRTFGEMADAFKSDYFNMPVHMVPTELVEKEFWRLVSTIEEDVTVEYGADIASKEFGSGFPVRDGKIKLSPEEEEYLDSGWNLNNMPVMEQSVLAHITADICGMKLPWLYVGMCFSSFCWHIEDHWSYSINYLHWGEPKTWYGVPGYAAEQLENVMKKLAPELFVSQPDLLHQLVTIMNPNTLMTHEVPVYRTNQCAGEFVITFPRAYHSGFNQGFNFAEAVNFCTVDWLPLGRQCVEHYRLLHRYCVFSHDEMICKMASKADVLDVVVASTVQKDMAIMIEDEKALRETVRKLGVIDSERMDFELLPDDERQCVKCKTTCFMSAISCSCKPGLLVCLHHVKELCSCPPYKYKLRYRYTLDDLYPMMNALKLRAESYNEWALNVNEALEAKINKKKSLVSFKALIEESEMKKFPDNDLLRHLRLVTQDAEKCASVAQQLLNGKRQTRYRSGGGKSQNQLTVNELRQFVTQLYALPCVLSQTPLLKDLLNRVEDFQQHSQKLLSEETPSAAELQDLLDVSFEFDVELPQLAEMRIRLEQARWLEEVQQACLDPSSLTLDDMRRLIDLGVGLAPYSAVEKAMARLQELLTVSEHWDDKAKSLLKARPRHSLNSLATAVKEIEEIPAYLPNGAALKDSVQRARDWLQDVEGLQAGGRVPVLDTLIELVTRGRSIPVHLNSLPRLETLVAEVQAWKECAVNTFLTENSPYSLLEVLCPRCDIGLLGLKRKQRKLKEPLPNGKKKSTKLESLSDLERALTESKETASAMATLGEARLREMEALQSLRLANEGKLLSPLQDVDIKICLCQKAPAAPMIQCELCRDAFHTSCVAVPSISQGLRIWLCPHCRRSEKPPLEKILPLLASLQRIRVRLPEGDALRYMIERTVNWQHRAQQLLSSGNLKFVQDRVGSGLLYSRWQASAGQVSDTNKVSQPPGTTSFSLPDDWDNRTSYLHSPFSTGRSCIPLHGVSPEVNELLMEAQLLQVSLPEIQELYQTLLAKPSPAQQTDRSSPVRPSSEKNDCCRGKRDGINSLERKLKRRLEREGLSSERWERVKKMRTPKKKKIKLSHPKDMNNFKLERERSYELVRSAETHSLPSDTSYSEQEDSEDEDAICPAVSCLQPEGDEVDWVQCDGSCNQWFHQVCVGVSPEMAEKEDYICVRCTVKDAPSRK
Assay: Primary screen for KDM5B Histone Demethylases FDH-coupled qHTS; further: nearly all actives have a fitted effect of over 70% in size; on activity change, negative = inhibition: 0% is about no effect
Details: FDH-coupled NADH fluorescence (FDH is formaldehyde dehydrogenase); activity change, negative = inhibition: at 57.7 µM (top of the series) unless noted
In short: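 KDM5BΔAP (200 nM final) in 50 mM HEPES pH 7.5, 0.01% Tween-20 was preincubated 10 min at RT with compound over a concentration range. Substrate mix (H3K4me3 12.5 µM, α-KG 25 µM, Fe²⁺, ascorbate, NAD⁺, FDH) was added, and NADH fluorescence change over 30 min gave dose-response curves.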
Potency means the concentration at half of the fitted maximal effect; tags describe the fitted curve by direction and shape.

SMILES | activity change, negative = inhibition | Potency
COc1ccccc1NC(=O)CSC1=Nc2ccccc2N=C(c2ccc(F)cc2)C1 | inactive: -47.7% | –
CCCCCCCCCOc1ccc(C(=O)O)cc1 | inactive: 30.1% | –
C=CCn1c(-n2nc(C)c(C)c2C)nc2c1c(=O)[nH]c(=O)n2C | inactive: 7.15% | –
CCCn1cc(CN2CCc3nc(NC)nc(C(=O)N4CCCC4)c3C2)c(C)n1 | – | inconclusive: 17.8 µM [inhibitor, single point]
CSc1sc(-c2ccnc(=S)[nH]2)c(-c2ccccc2)c1C#N | – | inconclusive: 39.8 µM [inhibitor, single point]
CC(=O)NC(CC(=O)Nc1nc(-c2ccc(N(C)S(C)(=O)=O)cc2)cs1)c1ccccc1 (stereo unspecified) | – | inconclusive: 31.6 µM [inhibitor, partial curve, poor fit]
C/C(=N\NC(=O)C1CC1)c1ccc2ccccc2c1 | inactive: -15.2% | –
CN(C)[C@@H]1CN(Cc2cccc(C#N)c2)CC[C@@H]1CNC(=O)C1CC1 | – | inconclusive: 39.8 µM [inhibitor, partial curve, poor fit]
c1cc(-c2cc(-c3ccc(N4CCOCC4)nc3)cn3cncc23)ccn1 | – | inconclusive: 35.5 µM [inhibitor, partial curve, poor fit]
CCOc1ccc(CC(=O)NC2CCN(c3cc(-c4ccc(OC)cc4)[nH]n3)CC2)cc1 | inactive: -21.2% | –
Cc1ccc(-c2ccc3nnc(CNC(=O)c4ccoc4)n3n2)cc1C | – | active: 15.8 µM
N#Cc1ccccc1COC(=O)c1ccc(C(=O)c2ccccc2)cc1 | inactive: 2.36% | –
CCN(CC)c1nc2ncn(CC(=O)Nc3ccc(Br)c(C)c3)c(=O)c2s1 | inactive: 15.7% | –
O=C(Nc1cccc(Cl)c1)N1CCSc2ncccc21 | – | inconclusive: 28.2 µM [inhibitor, partial curve, poor fit]
CN1CCN(C(=O)c2cccc3c2NCCC3)CC12CCNC(=O)CC2 (stereo unspecified) | – | active: 25.1 µM
Cc1ccc(C(=O)NC(=S)NNC(=O)COc2ccc([N+](=O)[O-])cc2)cc1 | – | inconclusive: 25.1 µM [inhibitor, single point]
O=C(c1ccc(Cl)cc1)N1CCC2(CC1)Cc1ccccc1NC2=O | – | inactive
COc1ccc(CN2Cc3[nH]cnc3C[C@H]2c2nc(-c3ccc(F)c(Cl)c3)no2)cc1 | – | inconclusive: 17.8 µM [inhibitor, partial curve]
CC(C)c1cc(C(=O)N2CCN(C)[C@@H]3CS(=O)(=O)C[C@@H]32)nc2ncnn12 | inactive: -13.8% | –
Cc1ccc(NC(=O)Cn2c(-c3cncs3)nc3ccccc32)cc1Br | – | inconclusive: 35.5 µM [inhibitor, single point]
CN1CC2(CCCN(CC3CC3)C2)c2cc(C(=O)NCCc3ccccc3)ccc21 (stereo unspecified) | – | active: 35.5 µM
CC1CCCN1c1ncnc2c1CN(C1CCC1)C(=O)CN2C (stereo unspecified) | inactive: -24% [at 86.2 µM] | –
Cc1cn2nc(C(=O)Nc3ccc4c(c3)OCCO4)cc2c(N2CCSCC2)n1 | – | active: 31.6 µM
Cc1c(C(=O)N2CCOC(C)C2)cnn1-c1cccc(Cl)c1 (stereo unspecified) | inactive: -0.781% | –

SMILES | activity change, negative = inhibition | Potency
CCOC(=O)C1CCN(CCC(=O)Nc2cc(OC)cc(OC)c2)CC1 | inactive: -4.23% | –
Cc1cc(NC(=O)COC(=O)c2nn(C(C)C)c(=O)c3ccccc23)no1 | inactive: 16.5% | –
COc1cccc(Cn2c(CNS(=O)(=O)c3ccc4c(c3)CCCC4)nc3cccnc32)c1 | – | inconclusive: 2.82 µM [inhibitor, partial curve, poor fit]
Cc1cccc(NC(=S)NCC2(C)CCCC3(C)c4ccc(C(C)C)cc4CCC23)c1 (stereo unspecified) | inactive: 6.8% | –
CCCNC(=O)NNC(=O)C(C)Oc1cccc(C(F)(F)F)c1 (stereo unspecified) | inactive: 11.4% | –
COc1ccccc1CNc1ncnc2c1c(-c1ccccc1)cn2-c1cccc(C)c1 | – | inconclusive: 35.5 µM [inhibitor, partial curve, poor fit]
CN(C)c1ccc(C(=O)/C=C/c2cccs2)cc1 | inactive: -11.5% | –
CCN1c2cc(C(=O)Nc3ccc(OC)cc3OC)ccc2C(=O)N2CCCCCC21 (stereo unspecified) | – | inconclusive: 20 µM [inhibitor, partial curve, poor fit]
Cc1ccccc1CNC(=O)CCC(=O)N1CC2CCCN2c2ccccc21 (stereo unspecified) | inconclusive: -36.2% [inhibitor] | –
CN(C)C(=O)CN(C)c1nc(-c2ccsc2)nc2ccccc12 | inactive: 8.57% | –
CC1=C(C(=O)Nc2ccccc2F)C(c2ccccc2)C2=C(CC(C)(C)CC2=O)N1 (stereo unspecified) | – | inconclusive: 39.8 µM [inhibitor, single point]
COc1ccc(NC(=O)Cc2c(C)c3ccc(OC)cc3oc2=O)c(OC)c1 | inactive: -17.7% | –
O=C(/C=C/c1cccs1)Nc1ccc2c(c1)CCC2 | – | inconclusive: 11.2 µM [inhibitor, partial curve, poor fit]
COc1cccc(OCc2nc(C(=O)N[C@H]3CCCCNC3=O)co2)c1 | – | inconclusive: 10 µM [inhibitor, partial curve, poor fit]
COc1cc2ccccc2cc1C(=O)Nc1ccc2oc(-c3ccccc3)nc2c1 | – | inconclusive: 2.24 µM [inhibitor, full curve, poor fit]
CCOC(=O)c1cc2c(=O)n3cccc(C)c3nc2n(CC(C)C)c1=NC(=O)c1ccco1 | – | inconclusive: 25.1 µM [inhibitor, partial curve, poor fit]
COc1cccc(/C=C/c2nc3c(ccc4ccccc43)s2)c1OC | – | inconclusive: 35.5 µM [inhibitor, partial curve, poor fit]
Cc1ccc(C(=O)OC(C)C(=O)Nc2ccc3c(c2)OCO3)cc1O (stereo unspecified) | inactive: -22.1% | –
CCN(CC)c1cc(CCC(=O)Nc2ccc(OC)c(OC)c2)ccn1 | – | inconclusive: 20 µM [inhibitor, partial curve]
Cc1ccc(CCNC(=O)c2cc(-c3ccc(Cl)cc3)n[nH]2)cc1 | inactive: 22% | –
COc1cc(C)ccc1S(=O)(=O)N1CCCCC1CN1CCOCC1 (stereo unspecified) | – | inconclusive: 20 µM [inhibitor, single point]
CN1C(=O)CCC2(CNC(=O)Nc3ccc4c(c3)OCCO4)CCC=C12 (stereo unspecified) | – | inconclusive: 39.8 µM [inhibitor, partial curve, poor fit]
O=C(COC(=O)c1cc(-c2ccccc2)nc2c(Cl)cccc12)c1ccc(F)cc1 | – | inconclusive: 15.8 µM [inhibitor, partial curve, poor fit]
CCOP(=O)(OCC)c1nc(-c2ccc(Cl)cc2)oc1NCc1ccco1 | – | inconclusive: 20 µM [inhibitor, partial curve, poor fit]

SMILES | activity change, negative = inhibition | Potency
COc1cccc(NC(=O)CCN2C(=O)C3CC=CCC3C2=O)c1 (stereo unspecified) | inactive: -3.34% | –
COCC1CN(S(=O)(=O)Cc2ccc(F)cc2)CC12CCNCC2 (stereo unspecified) | inactive: -20.1% | –
CCOc1ccc(-n2c(=O)c3c(C)c(C)sc3n(Cc3cc(=O)n4cc(Cl)ccc4n3)c2=O)cc1 | inconclusive: -37.9% [inhibitor] | –
CC(C)CSc1oc(-c2ccco2)nc1S(=O)(=O)c1ccc(Br)cc1 | – | inconclusive: 35.5 µM [inhibitor, partial curve, poor fit]
O=C(NCCc1ccccn1)c1ccc(OC2CCNCC2)nc1 | – | inconclusive: 28.2 µM [inhibitor, partial curve, poor fit]
O=C(Nc1ccc2ncnc(N3CCCCC3)c2c1)c1ccsc1 | inactive: -18.1% | –
CCOc1ccc(C2=CC(c3cc(Br)ccc3F)n3ncnc3N2)cc1Cl (stereo unspecified) | – | inconclusive: 6.31 µM [inhibitor, partial curve, poor fit]
C=CCN(CC(F)(F)F)C(=O)c1nc(-c2ccccc2)n(-c2ccccc2)n1 | inactive: 7.39% | –
COc1ccc(C)cc1NC(=O)CC(=O)Nc1ccc2nc3n(c(=O)c2c1)CCCCC3 | – | inconclusive: 31.6 µM [inhibitor, partial curve, poor fit]
CC1(C)Cc2c(c(N3CCOCC3)nc3sc(C(=O)Nc4cccc5ccccc45)c(N)c23)CO1 | – | inconclusive: 7.08 µM [inhibitor, full curve, poor fit]
Cc1ccc(NC(=O)Nc2ccc(C)n(CC(=O)Nc3ccccc3)c2=O)cc1 | – | inconclusive: 35.5 µM [inhibitor, single point]
Cn1cc(CNC(=O)C2CCN(c3nc(-c4ccccc4)nc4c3CCC4)CC2)cn1 | inactive: -8.46% | –
Cc1ccc(-c2nc3ccccc3s2)cc1S(=O)(=O)N1CCCC1 | – | inconclusive: 39.8 µM [inhibitor, single point]
CCn1ccnc1CN(C)C(=O)c1cc(COc2ccc3c(c2)OCO3)[nH]n1 | inactive: -23.3% | –
Cc1cc(C(=O)N[C@@H]2CCOC[C@H]2OCC(=O)O)sc1-c1ccccc1 | – | active: 25.1 µM
COc1cccc(NC(=O)C(CCSC)NC(=O)C2CCC(C)CC2)c1 (stereo unspecified) | – | inactive
COc1ccc(CC(=O)n2[nH]c(=O)ccc2=O)cc1OC | – | inconclusive: 5.01 µM [inhibitor, full curve, poor fit]
O=C(/C=C(\O)c1ccccc1)C(=O)NNC(=O)c1ccccc1[N+](=O)[O-] | – | inconclusive: 22.4 µM [inhibitor, partial curve, poor fit]
O=C(NN1CCN(C(c2ccccc2)c2ccccc2)CC1)c1ccc(F)cc1Cl | inactive: 8.63% | –
COc1ccccc1COc1ccc2c(C)c(CC(=O)O)c(=O)oc2c1C | – | inconclusive: 28.2 µM [inhibitor, partial curve, poor fit]
O=C(Cc1c[nH]c2ccccc12)N1CCCN(c2cc(-c3ccc(Cl)cc3)[nH]n2)CC1 | – | inconclusive: 11.2 µM [inhibitor, partial curve]
CN1c2cc(C(=O)NC3CCN(Cc4ccccc4)CC3)ccc2C(=O)N2CCCCC21 (stereo unspecified) | – | inconclusive: 28.2 µM [inhibitor, partial curve, poor fit]
COc1ccc(NC(=O)CSC2=Nc3ccccc3C3=NC(CCC(=O)NCCc4ccccc4)C(=O)N23)c(OC)c1 (stereo unspecified) | – | inconclusive: 39.8 µM [inhibitor, single point]
